# Assay results as given in PubChem BioAssay AID602310 (National Center for Advancing Translational Sciences (NCATS), 2012).
# Out of some 410,000 compounds screened, about 310 (0.076%) were called active. This list was built around the results that the source calls inconclusive (neither active nor inactive); the mix of calls is not that of the screen. Calls follow the shape of the dose curve; as a rule, active = well fitted curve in the direction sought with a large enough effect; inconclusive = small, poorly fitted or top-dose-only effect; inactive = flat fitted curve, though single readings scatter. Where the call is inconclusive, the potency comes from a doubtful curve fit.
# Target: DNA dC->dU-editing enzyme APOBEC-3G (Homo sapiens) (UniProt Q9HC16)
# Chain of UniProt Q9HC16 (Q9HC16 whole entry, looked up): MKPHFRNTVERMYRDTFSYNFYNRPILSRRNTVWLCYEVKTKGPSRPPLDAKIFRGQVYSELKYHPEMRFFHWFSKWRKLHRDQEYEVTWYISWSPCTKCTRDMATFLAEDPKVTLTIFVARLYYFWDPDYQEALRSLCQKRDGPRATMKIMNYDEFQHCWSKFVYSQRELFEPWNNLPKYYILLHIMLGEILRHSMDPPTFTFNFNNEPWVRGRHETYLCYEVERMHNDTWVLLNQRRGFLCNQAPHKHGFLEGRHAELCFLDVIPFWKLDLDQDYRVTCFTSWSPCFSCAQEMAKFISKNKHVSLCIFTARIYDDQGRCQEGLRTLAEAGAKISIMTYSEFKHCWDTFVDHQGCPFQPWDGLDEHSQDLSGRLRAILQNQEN
# Test: qHTS for Inhibitors of Vif-A3G Interactions: qHTS; also: nearly all actives have a fitted effect of over 60% in size;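 as to activity, negative = active: hits raise eYFP signal because A3G escapes Vif-driven loss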
# Conditions: HeLa A3G-eYFP + Vif (tagged APOBEC3G with the HIV-1 protein that degrades it), YFP fluorescence, overnight; series mostly up to 46.1 µM; activity, negative = active: at the top concentration
# In short: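 Read-out is eYFP fluorescence (Ex 488/Em 500-530) from Vif-expressing HeLa A3G-eYFP cells; more signal means A3G escaped Vif-mediated degradation. Cells plated overnight, compound pinned in, incubated overnight at 37 deg C.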
# % is scaled to controls: 0 for no effect and ±100 for the full control effect; potency is read from the fitted curve at half-maximal effect; tags tell the direction and shape of the fitted curve.
Compound,"activity, negative = active",Potency
CCN(CC(=O)NCc1ccc(Cl)cc1)C(=O)CSc1ccc(F)cc1,inactive: 0.213%,–
CC1CC=CC2C1C(=O)N(Cc1ccccc1)C2c1ccoc1 (centres undefined),–,"inconclusive: 25.1 µM [inhibitor, single point]"
COc1ccc(NC(=O)Cn2nnc(-c3ccccc3NC(=O)c3cccs3)n2)cc1,–,"inconclusive: 7.08 µM [inhibitor, partial curve, poor fit]"
O=C1NC(=S)S/C1=C/c1ccc(N2CCOCC2)o1,–,active: 11.2 µM
Cc1cc(C=O)c(C)c2c1[nH]c1ccccc12,inactive: 0.984%,–
CCOc1ccc(C(Nc2cccnc2)c2cc(Cl)c3cccnc3c2O)cc1 (centres undefined),–,"inconclusive: 35.5 µM [inhibitor, single point]"
Cc1cc(Cl)c2oc(C(=O)N(C)CCc3cnn(C)c3)c(C)c2c1,inactive: -4.21%,–
CCOC(=O)c1c(NC(=O)CSc2nc3ccc(C)cc3[nH]2)sc2c1CC(C)(C)NC2(C)C,–,"inconclusive: 35.5 µM [inhibitor, single point]"
COc1ccc2c(/C=C/c3cc[n+](C)cc3)c[nH]c2c1,–,"inconclusive: 15.8 µM [inhibitor, partial curve, poor fit]"
COc1ccc(-c2onc(C)c2-c2ccc3c(c2)OCCO3)c(O)c1,–,"inconclusive: 35.5 µM [inhibitor, single point]"
COc1ccc(OC)c(C(Cc2ccnc3ccccc23)Cc2ccnc3ccccc23)c1,inactive: -11.5%,–
CCc1cc(C(=O)N/N=C/c2ccc(O)cc2O)c2ccccc2n1,–,"inconclusive: 17.8 µM [inhibitor, single point]"
CCCN1C/C(=C/c2ccc3c(c2)OCO3)C(=O)/C(=C/c2ccc3c(c2)OCO3)C1,–,"inconclusive: 3.98 µM [inhibitor, single point]"
Cc1nc2ccccc2nc1OCC(=O)NCc1ccc2c(c1)OCO2,inactive: -17.5%,–
COc1ccc(/C=N/NC(=O)c2ccc3ccccc3c2)cc1OS(=O)(=O)c1ccc(NC(C)=O)cc1,–,"inconclusive: 2.82 µM [inhibitor, partial curve, poor fit]"
O=C(NCCc1ccccc1)C1Cc2c(-c3ccc4c(c3)OCO4)ccnc2O1 (centres undefined),–,"inconclusive: 7.08 µM [inhibitor, full curve]"
CCC[n+]1c(/C=C/c2c(OC)cc(OC)cc2OC)ccc2ccccc21,–,"inconclusive: 3.55 µM [inhibitor, partial curve, poor fit]"
CN1c2ccccc2C(C)(C)C12C=Cc1cc(O)ccc1O2 (centres undefined),–,"inconclusive: 35.5 µM [inhibitor, single point]"
CCOC(=O)C1=C(CC)Nc2ccccc2N/C1=N\S(=O)(=O)c1ccc2ccccc2c1,–,"inconclusive: 4.47 µM [inhibitor, full curve, poor fit]"
